We go through 76 variants from a collection of fitness landscapes (doi:10.1016/j.celrep.2020.107928).

Whole data set: some 81,000 sequences, median “one-hybrid fitness for binding parS DNA” near -0.17, cut for the highest 2% near 0.51. This is one part of the list. Bounds are passed on as bounds.

B1: Caulobacter ParB omega fusion; a variant is named by its letters at X, in order, B8GW30 (parent)
chain: MESVVVGEPGMSEGRRGLGRGLSALLGEVDAAPAQAPGEQLGGSREAPIEILQRNPDQPRRTFREEDLEDLSNSIREKGVLQPILVRPSPDTAGEYQIVAGERAWRAAQRAGLKTVPIMVRELDDLAVLEIGIIENVQRADLNVLEEALSYKVLMEKFERTQENIAQTIGKSXSHVANXMRLLXLPDEVQSYLVSGELTAXHARAIAAAADPVALAKQIIEGGLSVRETEALARKAPNLSAGKSKGGRPPRVKDTDTQALESDLSSVLGLDVSIDHRGSTGTLTITYATLEQLDDLCNRLTRGI

Variants of B1 are the subject of this assay. The assay can be described thus: one-hybrid fitness for binding parS DNA (scaled: cognate 1, non-cognate 0); higher = stronger binding. To be noted: with parS DNA site. The essentials:
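On M9-minus-histidine containing 0.1 mM IPTG and 5 mM 3-AT, E. coli USO cells with a HIS3 reporter, site 19 bp from the promoter, grew 48 hours at 37°C to select Caulobacter ParB libraries randomised at four specificity codons. Plasmids from before and after were Illumina-sequenced, with three replicate libraries pooled and variants under 10 reads left out. Fitness is the log change in variant-to-wild-type read ratio, rescaled against cognate and non-cognate.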
For KTPG, the “one-hybrid fitness for binding parS DNA” value is at most 0.2.
For the variant DRTA, the “one-hybrid fitness for binding parS DNA” value is at most 0.2.
Then VDSP, with at most 0.2.
Then YMHC, with at most 0.2; and GAGR, with at most 0.2; and GCCS, with at most 0.2.
In the case of MQDL it was 0.226; in that of RIRE, at most 0.2; in that of VIQC, at most 0.2.
In the case of QTQS, the “one-hybrid fitness for binding parS DNA” value was at most 0.2.
SDES: the “one-hybrid fitness for binding parS DNA” value is at most 0.2.
As for DFTL, the “one-hybrid fitness for binding parS DNA” value is at most 0.2.
With RPGF, the “one-hybrid fitness for binding parS DNA” value was at most 0.2.
YKGR: the “one-hybrid fitness for binding parS DNA” value is at most 0.2.
Turning to LTGV, the “one-hybrid fitness for binding parS DNA” value was at most 0.2.
Then TIME, with at most 0.2.
Then FSWY, with at most 0.2; and MIQP, with at most 0.2; and CKAQ, with at most 0.2.
As to YRIT, the “one-hybrid fitness for binding parS DNA” value is at most 0.2.
With SALV, the “one-hybrid fitness for binding parS DNA” value is at most 0.2.
In the case of IRKI it was at most 0.2.
In the case of QMVM it was at most 0.2; in that of AYKN, at most 0.2.
Turning to SNKY, the “one-hybrid fitness for binding parS DNA” value is at most 0.2.
Then YMAA, with at most 0.2; and KLDY, with at most 0.2.
As to AMET, the “one-hybrid fitness for binding parS DNA” value is at most 0.2.
For SEAT, the “one-hybrid fitness for binding parS DNA” value was at most 0.2.
Take QPFS: the “one-hybrid fitness for binding parS DNA” value is at most 0.2.
In the case of ATMY it was at most 0.2.
Consider ANFS, for which the “one-hybrid fitness for binding parS DNA” value is at most 0.2.
For the variant TFAR, the “one-hybrid fitness for binding parS DNA” value is at most 0.2.
QAMS: the “one-hybrid fitness for binding parS DNA” value was at most 0.2.
In the case of HFTY it was at most 0.2; in that of ATPR, at most 0.2; in that of NQEI, at most 0.2.
In the case of EGPE it was at most 0.2; in that of VSHS, at most 0.2.
RQCA: the “one-hybrid fitness for binding parS DNA” value turned out to be 0.558.
Then NIRF, with at most 0.2; and SPME, with at most 0.2; and AIMD, with at most 0.2.
For the variant KCKV, the “one-hybrid fitness for binding parS DNA” value was at most 0.2.
As to RWDM, the “one-hybrid fitness for binding parS DNA” value was at most 0.2.
Then QLTP, with at most 0.2; and PSLL, with at most 0.2.
In the case of HSMS it was at most 0.2; in that of LVSA, at most 0.2; in that of HRQR, at most 0.2.
Take YTFR: the “one-hybrid fitness for binding parS DNA” value was at most 0.2.
Consider KTSV, for which the “one-hybrid fitness for binding parS DNA” value is at most 0.2.
Consider LAGP, for which the “one-hybrid fitness for binding parS DNA” value was at most 0.2.
Then RMNT, with 0.904.
As to WTKW, the “one-hybrid fitness for binding parS DNA” value was at most 0.2.
Regarding WQNN, the “one-hybrid fitness for binding parS DNA” value is at most 0.2.
As to ASKM, the “one-hybrid fitness for binding parS DNA” value is at most 0.2.
For QPAD, the “one-hybrid fitness for binding parS DNA” value is at most 0.2.
In the case of QMAC it was at most 0.2.
In the case of EYEV it was at most 0.2; in that of TSLT, at most 0.2; in that of HARS, at most 0.2.
Regarding AYKS, the “one-hybrid fitness for binding parS DNA” value was at most 0.2.
Then HGYR, with at most 0.2.
Take WLVG: the “one-hybrid fitness for binding parS DNA” value is at most 0.2.
In the case of MWHK it was at most 0.2; in that of AQSG, at most 0.2; in that of IAHE, at most 0.2.
On to GRCT, for which the “one-hybrid fitness for binding parS DNA” value is at most 0.2.
In the case of HTKL it was at most 0.2.
Then TTPH, with at most 0.2; and DGKG, with at most 0.2.
In the case of FLTS it was at most 0.2; in that of GPIY, at most 0.2; in that of WGPE, at most 0.2.
In the case of NNPA, the “one-hybrid fitness for binding parS DNA” value was at most 0.2.
